Binding signal data for 42 sequences are collected here from publication PMC7819943, “Rice protein-binding microarrays: a tool to detect cis-acting elements near promoter regions in rice”.

Some of the results follow.

For this experiment, the target named is T1, OsWOX13 (Oryza sativa, UniProt Q5QMM3 1-267).
T1 sequence: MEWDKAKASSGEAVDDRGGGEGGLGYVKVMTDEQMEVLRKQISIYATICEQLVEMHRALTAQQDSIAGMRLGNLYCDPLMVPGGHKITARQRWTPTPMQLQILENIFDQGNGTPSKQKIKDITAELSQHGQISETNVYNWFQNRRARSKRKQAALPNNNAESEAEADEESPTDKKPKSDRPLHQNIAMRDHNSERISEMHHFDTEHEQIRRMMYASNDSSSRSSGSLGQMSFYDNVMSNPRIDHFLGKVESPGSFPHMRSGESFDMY
As to the kind of experiment: protein-binding microarray (RPBM); PBS, 2% BSA, 51.3 ng/ul salmon testes DNA, 50 uM zinc acetate, 200 nM TF, 25 C, 1 h; high values mean tight binding. The following applies: protein: recombinant; tags: N-terminal polyhistidine and DsRed monomer fusion (pET32a); label: CyDye5-dUTP incorporated in the synthesized complementary strand; 3' TTTTT single-stranded linker to array surface; dsDNA, one strand shown. In short, it runs like this: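 Binding signal here means per-feature fluorescence intensity in arbitrary units. The values were read on an Axon 4000B scanner after a custom Agilent array, double-stranded by primer extension with Cy5-dUTP, was incubated with 200 nM protein at 25 °C for 1 h in PBS with 2% BSA, salmon testes DNA and 50 µM zinc acetate, then washed. The proteins were transcription factors with an N-terminal polyhistidine tag and DsRed, expressed in E. coli BL21-CodonPlus and purified on Ni–NTA.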
For “ACTGTAATTAGCCCAGCAAATTAATGTACAATGAACATGTCGGAGTCACCTAGTGCAG”, the binding signal was 23400 fluorescence intensity (a.u.).

With “TTGTATAAATGAGCTATCAGATTGGCTATAGATAAATTGGCGGAGTCACCTAGTGCAG”, the binding signal was 12000 fluorescence intensity (a.u.).

In the case of “CTGATAGAAAATTGCAATCTTCCCACAGGCCAGGGCAGCGCGGAGTCACCTAGTGCAG”, the binding signal is 33100 fluorescence intensity (a.u.).

As for “TAAAACACGTGATTATACGCCAAAATCATACTGACGTGGGCGGAGTCACCTAGTGCAG”, the binding signal was 8530 fluorescence intensity (a.u.).

For “TGTTACTCCATTACTTGATTATGCTCACTTATTTATTTATCGGAGTCACCTAGTGCAG”, the binding signal was 4200 fluorescence intensity (a.u.).

Regarding “TCTTCAATCAAACCCTAGAAAGTTCTACTACAGGTCACTACGGAGTCACCTAGTGCAG”, the binding signal was 25600 fluorescence intensity (a.u.).

In the case of “ATTAGCAATTAATTAATTATTAATTGGATAATTAATCACTCGGAGTCACCTAGTGCAG”, the binding signal was 64800 fluorescence intensity (a.u.).

For the sequence “TGCAAATTTTGGACAGACACCAATCCAGATTTTCCGGGTGCGGAGTCACCTAGTGCAG”, the binding signal was 9960 fluorescence intensity (a.u.).

On to “AATTCACTGCTGTTAATTACACCAGCACTTATGAACAGTGCGGAGTCACCTAGTGCAG”, for which the binding signal is 4980 fluorescence intensity (a.u.).

For the sequence “AAGGATTGCTATGATTCATATTTGTCACCGTGGGTACCAGCGGAGTCACCTAGTGCAG”, the binding signal was 4490 fluorescence intensity (a.u.).

In the case of “TACCTGATGAGTGATAAGACTCAACTGACGTGCTGTGCTGCGGAGTCACCTAGTGCAG”, the binding signal is 7380 fluorescence intensity (a.u.).

As for “GCTTGTTTAATGTTAATTATTGTTATGTTTTGGTTAAACTCGGAGTCACCTAGTGCAG”, the binding signal was 6820 fluorescence intensity (a.u.).

On to “TACTAAAATTACATATGTAATTTAGAGACTTACATATATACGGAGTCACCTAGTGCAG”, for which the binding signal was 10200 fluorescence intensity (a.u.).

As for “AAAATCCAATCAAGCCACCCAATTCCATGCTTTTCACTTTCGGAGTCACCTAGTGCAG”, the binding signal was 8420 fluorescence intensity (a.u.).

For the sequence “AATTTTAAGTTGTATGATTATAATTATTTAAGTGACATAACGGAGTCACCTAGTGCAG”, the binding signal is 5960 fluorescence intensity (a.u.).

Turning to “GAGAGATGATGGGCTGGTTTGGTTTGAGGCCTAAATTAGGCGGAGTCACCTAGTGCAG”, the binding signal was 3660 fluorescence intensity (a.u.).

“CAAAATTTGAATTGTTCAAATAGAGCCAGACGGAGAAATGCGGAGTCACCTAGTGCAG”: the binding signal is 5310 fluorescence intensity (a.u.).

In the case of “AAATTTTGAAATTGTTAATATGATATAAATGAGATATAGCCGGAGTCACCTAGTGCAG”, the binding signal was 3970 fluorescence intensity (a.u.).

Take “ATAAATTTTGATTTCATGCAAGGGAAACACCGGTGAGGCCCGGAGTCACCTAGTGCAG”: the binding signal is 10500 fluorescence intensity (a.u.).

“TGGAGAATTTAATAAAATTAAATTTAACAATGTCATTTTACGGAGTCACCTAGTGCAG”: the binding signal was 3230 fluorescence intensity (a.u.).

With “CCTTAATGGATGAAATCCTTCATGCTGTATGTTCCCACTTCGGAGTCACCTAGTGCAG”, the binding signal was 23500 fluorescence intensity (a.u.).

Regarding “AAGACTAATTAATCCGTTATTACCACATTATCAAATCATGCGGAGTCACCTAGTGCAG”, the binding signal was 30100 fluorescence intensity (a.u.).

With “AGTTGACTGTCAATCTTTCATGAGGACATATTCTAGTTTACGGAGTCACCTAGTGCAG”, the binding signal is 38600 fluorescence intensity (a.u.).

Take “AAGATAAATGTAACTGTCTTATTGCGCCCGCGCGGATGCCCGGAGTCACCTAGTGCAG”: the binding signal was 3330 fluorescence intensity (a.u.).

Turning to “GCTCTTGCCATATCAATTGATATGATGCATACATCACAAACGGAGTCACCTAGTGCAG”, the binding signal is 3390 fluorescence intensity (a.u.).

For the sequence “AAAGATGACAACAAACATACAAATTTATTTGTTGTTTTATCGGAGTCACCTAGTGCAG”, the binding signal is 3530 fluorescence intensity (a.u.).

With “AGAACCAATCAGGCGGGAGACAACTGGACAACCGTCAGCCCGGAGTCACCTAGTGCAG”, the binding signal was 15200 fluorescence intensity (a.u.).

Regarding “CTCATCAATGTATTGATTGCATCCTGCAAATAGTTCAGGGCGGAGTCACCTAGTGCAG”, the binding signal is 23800 fluorescence intensity (a.u.).

For “TCAGTATGTGATTGATTGAAAACTGAAATGGTAGACATACCGGAGTCACCTAGTGCAG”, the binding signal was 53400 fluorescence intensity (a.u.).

In the case of “CCAAGCAAATAATCCGATAGATTGAATCGGTGAGTTACCACGGAGTCACCTAGTGCAG”, the binding signal was 9630 fluorescence intensity (a.u.).

In the case of “CAGAATTATATAAATTCTGGCTCCACCACTGACTGCGACACGGAGTCACCTAGTGCAG”, the binding signal is 4010 fluorescence intensity (a.u.).

With “TAACTGAAATGTAATTATATTGTAACTGCACTATGACTGCCGGAGTCACCTAGTGCAG”, the binding signal is 18100 fluorescence intensity (a.u.).

For the sequence “CAGTGAAAATTGATACGCTATGAAACCCAACAAGATTGAACGGAGTCACCTAGTGCAG”, the binding signal was 8120 fluorescence intensity (a.u.).

Take “GTCATTACAATTATTAGTCTATTTGTAGCCGTGCAATTGGCGGAGTCACCTAGTGCAG”: the binding signal was 6320 fluorescence intensity (a.u.).

As for “TTTCTTTAATTATATTCTTCTGTTAAGACAAGCAAGGGAACGGAGTCACCTAGTGCAG”, the binding signal is 8320 fluorescence intensity (a.u.).

Consider “TCCATACATTATTGACGTAATCATAAATATACATCCATGTCGGAGTCACCTAGTGCAG”, for which the binding signal is 16600 fluorescence intensity (a.u.).

In the case of “AAAATATATTTAATTATTAATTTGGTGATACTAATTTAGTCGGAGTCACCTAGTGCAG”, the binding signal is 14200 fluorescence intensity (a.u.).

Regarding “AACGAGATTGGGGATAAGATAGAAAGAAAATTAAATAAGGCGGAGTCACCTAGTGCAG”, the binding signal is 14700 fluorescence intensity (a.u.).

As to “CAATTAGTACAATTAAGTCAATAGTGATTCAGGCAACAGCCGGAGTCACCTAGTGCAG”, the binding signal is 4490 fluorescence intensity (a.u.).

For the sequence “GATAATTGCACCAAATTTACTTTCTTCAAGCTATAAGTGCCGGAGTCACCTAGTGCAG”, the binding signal was 42100 fluorescence intensity (a.u.).

As to “CTAATTAAATAATCTTGGATGATAGAAAGACAAGTGATTTCGGAGTCACCTAGTGCAG”, the binding signal was 5130 fluorescence intensity (a.u.).

Regarding “CTACCTAATTAGGTCAATAAAATTGTATAACAGAGTCGAGCGGAGTCACCTAGTGCAG”, the binding signal is 39000 fluorescence intensity (a.u.).
